# According to PubChem BioAssay (NCATS):
# Some of the results follow. Shown are side measurements of this screen, not its main read-out; they come without a call. Most of these compounds were active or inconclusive in the main read-out, so they are no random draw. Potencies come from curve fits of mixed quality, noted in brackets.
# Test: qHTS Assay for Lipid Storage Modulators (AID 1519)
# Conditions: Drosophila S3 cells, BODIPY lipid droplet/cell ratio, laser cytometry, cells loaded with oleic acid
# In short: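 Cells seeded at 5,000 per well were treated with compounds over a concentration series and loaded with oleic acid (400 uM, as added). Lipid droplet fluorescence (488 nm excitation, 500-530 nm channel) was read by laser-scanning cytometry and normalized to 20 uM Triacsin C.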
# [1] = measured here: cell count channel max response
# [2] = measured here: lipid (BODIPY) channel AC50
# [3] = measured here: lipid channel max response
# [4] = measured here: cell number channel AC50
# Tags give direction and shape of the fitted curve.
structure (smiles),measurement,setting,value
COc1ccc(-c2cc(C(F)F)nn2-c2ccc(S(N)(=O)=O)cc2)cc1F,max response,[1],15.2%
same,AC50,[2],"39800 nM [rising, single point]"
same,max response,[3],36.1%
CN1CCN(c2ncc3nc(-c4ccccc4)c(=O)n(-c4ccccc4)c3n2)CC1,max response,[1],26.8%
same,AC50,[2],"708 nM [rising, full curve, poor fit]"
same,max response,[3],34.5%
CCNc1ncc2nc(-c3ccc(Cl)cc3)c(=O)n(C3CC3)c2n1,max response,[1],16.7%
same,AC50,[2],"56.2 nM [rising, full curve]"
same,max response,[3],18.4%
Cc1cc(O)c(C)c(O)c1C(=O)O,max response,[1],21.4%
same,AC50,[2],"39800 nM [rising, single point]"
same,max response,[3],34.1%
N[C@H](Cc1ccc(Cl)cc1)C(=O)O,max response,[1],26.4%
same,AC50,[2],"39800 nM [rising, single point]"
same,max response,[3],31.1%
O=c1c2cc(O)c(O)cc2oc2cc(O)c(C3OC(CO)C(O)C(O)C3O)c(O)c12 (stereo not drawn),max response,[1],17.7%
same,AC50,[2],"39800 nM [rising, single point]"
same,max response,[3],36.5%
CN1CCN(c2ncc3nc(-c4cn(C)c5ccccc45)c(=O)n(Cc4cccs4)c3n2)CC1,max response,[1],-49.2%
same,AC50,[4],"12600 nM [falling, partial curve]"
same,max response,[3],-97.7%
COCCn1c(=O)c(-c2ccccc2)nc2cncnc21,max response,[1],28%
same,AC50,[2],"4470 nM [rising, partial curve]"
same,max response,[3],32.9%
CC(=O)Oc1c(-c2ccccc2)oc2c(CC=C(C)C)c3c(c(OC(C)=O)c2c1=O)C=CC(C)(C)O3,max response,[1],10.9%
same,AC50,[2],"7940 nM [rising, partial curve]"
same,max response,[3],20.7%
CN1CCN(c2ncc3nc(CCc4ccccc4)c(=O)n(CCC#N)c3n2)CC1,max response,[1],9.78%
same,AC50,[2],"63.1 nM [rising, full curve, poor fit]"
same,max response,[3],12.7%
COC(=O)N1CCC2(CCN(C(=O)Nc3cccc(F)c3)CC2)CC1,max response,[1],20.4%
same,AC50,[2],"10 nM [rising, full curve, poor fit]"
same,max response,[3],28.9%
COC(=O)CC1C(C)(C)C(=O)C2CC3C4=CC(=O)OC(c5ccoc5)[C@]4(C)CCC3[C@@]1(C)C2=O (stereo partly drawn),max response,[1],18.8%
same,AC50,[2],"25100 nM [rising, single point]"
same,max response,[3],33.8%
COc1cccc(Cn2c(=O)c(-c3cccs3)nc3cnc(Nc4cccc(OC)c4)nc32)c1,max response,[1],16.7%
same,AC50,[2],"31.6 nM [rising, full curve, poor fit]"
same,max response,[3],-2.84%
N#Cc1cccc(NC(=O)N2CC[C@@]3(CCCN(S(=O)(=O)c4ccccc4)C3)C2)c1,max response,[1],-0.345%
same,AC50,[4],"3550 nM [rising, single point]"
same,max response,[3],5.43%
CN(C)c1ncnc2ccc(-c3ccc4c(c3)OCO4)cc12,max response,[1],23.1%
same,AC50,[2],"17.8 nM [rising, full curve]"
same,max response,[3],37%
COCCn1c(=O)c(-c2cn(C)c3ccccc23)nc2cnc(OCc3ccccc3)nc21,max response,[1],16.9%
same,AC50,[2],"355 nM [rising, full curve, poor fit]"
same,max response,[3],17.5%
COCCn1c(=O)c(-c2cccc(C#N)c2)nc2cnc(OCc3ccccc3)nc21,max response,[1],5.94%
same,AC50,[2],"447 nM [rising, full curve, poor fit]"
same,max response,[3],-3.04%
COc1ccc(-n2c(=O)c(-c3ccccc3)nc3cnc(N4CCNCC4)nc32)cc1,max response,[1],23.4%
same,AC50,[2],"4470 nM [rising, full curve, poor fit]"
same,max response,[3],25%
O=C(Nc1ccccc1)N1CCC2(CCNCC2)CC1,max response,[1],24.8%
same,AC50,[2],"31.6 nM [rising, full curve, poor fit]"
same,max response,[3],36.7%
CC1CC[C@@]2(C(=O)O)CC[C@]3(C)C(=CCC4[C@@]5(C)CCC(O)C(C)(C)C5CC[C@@]43C)C2C1C (stereo partly drawn),max response,[1],33.1%
same,AC50,[2],"39800 nM [rising, single point]"
same,max response,[3],43.3%
COc1cc(OC)c2c(=O)c(-c3ccccc3)c(C)oc2c1OC,max response,[1],17.3%
same,AC50,[2],"39800 nM [rising, single point]"
same,max response,[3],31.8%
CC(=O)NCCNc1ncncc1-c1ccccc1CN(C)C,max response,[1],23.7%
same,AC50,[2],"891 nM [rising, partial curve, poor fit]"
same,max response,[3],30.2%
COc1ccc(Oc2ncc3nc(-c4ccc(F)cc4)c(=O)n(Cc4cccs4)c3n2)cc1,max response,[1],29.6%
same,AC50,[2],"1260 nM [rising, partial curve]"
same,max response,[3],37.8%
COc1cc2nc(N(C)CCCNC(=O)[C@@H]3CCCO3)nc(N)c2cc1OC,max response,[1],27.2%
same,AC50,[2],"1780 nM [rising, partial curve, poor fit]"
same,max response,[3],30.2%
FC(F)(F)c1ccccc1-c1nc(Nc2ccncc2)c2ccccc2n1,max response,[1],-16.6%
same,AC50,[2],"25100 nM [falling, single point]"
same,max response,[3],-31.7%
O=c1c(-c2ccc(F)cc2)nc2cncnc2n1C1CC1,max response,[1],25.5%
same,AC50,[2],"5.01 nM [rising, full curve, poor fit]"
same,max response,[3],30.2%
